Measurements as given in the supplement of paper PMC10037445.
Over roughly 2,900 compounds, “IRF Lucia reporter activity, fold change vs agonist alone” has its median near 0.9; the highest 2% begin near 2.8. The list shows a part of the results.

Tests used:
[1] = tested on: RAW-Dual; experiment: IRF Lucia reporter activity, fold change vs agonist alone; cytotoxicity flag (confluency mask): not cytotoxic; higher = enhanced IRF activity
Method in brief: (§1)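 RAW-Dual macrophages were seeded in DMEM at 50,000 cells/well in 384-well plates, given 50 nL of library stock by pin tool, and given a PRR agonist 1 h later. Plates were held at 37 °C, 5% CO2 for 20 hours, after which supernatant was read for IRF by QuantiLuc luminescence and for NF-κB by QuantiBlue absorbance at 620 nm. Reporter activity is expressed as fold change over wells that received agonist alone. A well was called cytotoxic when IncuCyte confluency fell below 70% of agonist controls in both mask sets.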

[2] = tested on: RAW-Dual; experiment: IRF Lucia reporter activity, fold change vs agonist alone; higher = enhanced IRF activity; conditions: agonist: MPLA (TLR4) […]
Method in brief: as §1

[3] = tested on: RAW-Dual; experiment: IRF Lucia reporter activity, fold change vs agonist alone; cytotoxicity flag (confluency mask): cytotoxic (confluency <70% of control); higher = enhanced IRF activity
Method in brief: as §1

[4] = agonist: 3'3'-cGAMP (STING) 10 ug/mL
[5] = library stock concentration (final ~1000-fold dilution): 10 mM, cytotoxicity flag (confluency mask): not cytotoxic
[6] = library stock concentration (final ~1000-fold dilution): 2 mM, cytotoxicity flag (confluency mask): not cytotoxic

Q: How did the “IRF Lucia reporter activity” value [1, 4] turn out when `O=C(/C=C/c1ccc(O)c(O)c1)O[C@@H]1C[C@](OC(=O)/C=C/c2ccc(O)c(O)c2)(C(=O)O)C[C@@H](O)[C@H]1O` (library stock concentration (final ~1000-fold dilution): 10 mM) was run?
A: Its value is 0.0251.

Q: And the “IRF Lucia reporter activity” value ([1]; agonist: LPS (TLR4) 0.1 ug/mL)?
A: Its value is 0.087.

Q: How did the “IRF Lucia reporter activity” value [1, 4] turn out when `CC1OC(OC2C(Oc3cc(O)c(C(=O)CCc4ccc(O)cc4)c(O)c3)OC(CO)C(O)C2O)C(O)C(O)C1O` (stereo unspecified) (library stock concentration (final ~1000-fold dilution): 10 mM) was run?
A: The value was 0.98.

Q: And the “IRF Lucia reporter activity” value ([1]; agonist: LPS (TLR4) 0.1 ug/mL)?
A: Its value is 1.02.

Q: Which “IRF Lucia reporter activity” value [2, 5] does the source give for `CC1OC(OC2C(Oc3cc(O)c(C(=O)CCc4ccc(O)cc4)c(O)c3)OC(CO)C(O)C2O)C(O)C(O)C1O` (stereo unspecified) here?
A: Its value is 1.01.

Q: `NC1=NC2(c3cc(NC(=O)c4ccc(F)cn4)ccc3F)COCC2CS1` (stereo unspecified) was tested. Which “IRF Lucia reporter activity” value [2, 5] did it give?
A: Its value is 1.04.

Q: With `NC1=NC2(c3cc(NC(=O)c4ccc(F)cn4)ccc3F)COCC2CS1` (stereo unspecified) (library stock concentration (final ~1000-fold dilution): 10 mM) as the molecule, how does the “IRF Lucia reporter activity” value [1, 4] read?
A: The value was 1.08.

Q: What about the “IRF Lucia reporter activity” value ([1]; agonist: LPS (TLR4) 0.1 ug/mL) of the same molecule?
A: Its value is 0.998.

Q: For `CC(Oc1ccc2[nH]nc(/C=C/c3cnn(CCO)c3)c2c1)c1c(Cl)cncc1Cl` (stereo unspecified), which “IRF Lucia reporter activity” value ([2]; library stock concentration (final ~1000-fold dilution): 10 mM, cytotoxicity flag (confluency mask): cytotoxic (confluency <70% of control)) is on record?
A: The value was 0.0243.

Q: How did the “IRF Lucia reporter activity” value [3, 4] turn out when `CC(Oc1ccc2[nH]nc(/C=C/c3cnn(CCO)c3)c2c1)c1c(Cl)cncc1Cl` (stereo unspecified) (library stock concentration (final ~1000-fold dilution): 10 mM) was run?
A: The value was 0.0195.

Q: What about the “IRF Lucia reporter activity” value ([3]; agonist: LPS (TLR4) 0.1 ug/mL) of the same molecule?
A: The value was 0.0156.

Q: For `O=C(Nc1ccc(O)cc1)c1ccccc1O`, which “IRF Lucia reporter activity” value [2, 5] is on record?
A: Its value is 1.02.

Q: `O=C(Nc1ccc(O)cc1)c1ccccc1O` (library stock concentration (final ~1000-fold dilution): 10 mM) was tested. Which “IRF Lucia reporter activity” value [1, 4] did it give?
A: Its value is 0.523.

Q: And the “IRF Lucia reporter activity” value ([1]; agonist: LPS (TLR4) 0.1 ug/mL)?
A: Its value is 0.835.

Q: How did the “IRF Lucia reporter activity” value [2, 5] turn out when `C=CC(=O)Nc1cccc(Nc2nc(Nc3ccc(N4CCN(C(C)=O)CC4)cc3OC)ncc2C(F)(F)F)c1` was run?
A: Its value is 0.22.

Q: With `C=CC(=O)Nc1cccc(Nc2nc(Nc3ccc(N4CCN(C(C)=O)CC4)cc3OC)ncc2C(F)(F)F)c1` (library stock concentration (final ~1000-fold dilution): 10 mM) as the molecule, how does the “IRF Lucia reporter activity” value [1, 4] read?
A: The value was 0.0334.

Q: And the “IRF Lucia reporter activity” value ([1]; agonist: LPS (TLR4) 0.1 ug/mL)?
A: The value was 0.193.

Q: For `CS(=O)(=O)CCNCc1ccc(-c2ccc3ncnc(Nc4ccc(OCc5cccc(F)c5)c(Cl)c4)c3c2)o1` (library stock concentration (final ~1000-fold dilution): 10 mM), which “IRF Lucia reporter activity” value [1, 4] is on record?
A: The value was 0.277.

Q: What about the “IRF Lucia reporter activity” value ([1]; agonist: LPS (TLR4) 0.1 ug/mL) of the same molecule?
A: The value was 1.43.

Q: How did the “IRF Lucia reporter activity” value [2, 5] turn out when `CS(=O)(=O)CCNCc1ccc(-c2ccc3ncnc(Nc4ccc(OCc5cccc(F)c5)c(Cl)c4)c3c2)o1` was run?
A: Its value is 1.6.

Q: `Cl.O=C1NCC2(CCN(CCc3ccccc3)CC2)O1` (library stock concentration (final ~1000-fold dilution): 10 mM) was tested. Which “IRF Lucia reporter activity” value [1, 4] did it give?
A: Its value is 0.933.

Q: And the “IRF Lucia reporter activity” value ([1]; agonist: LPS (TLR4) 0.1 ug/mL)?
A: The value was 0.706.

Q: `Cl.O=C1NCC2(CCN(CCc3ccccc3)CC2)O1` was tested. Which “IRF Lucia reporter activity” value [2, 5] did it give?
A: The value was 0.939.

Q: How did the “IRF Lucia reporter activity” value [2, 5] turn out when `CC(C)(C)C(=O)OCOP(=O)(COCCn1cnc2c(N)ncnc21)OCOC(=O)C(C)(C)C` was run?
A: Its value is 2.95.

Q: What does the source list for `CC(C)(C)C(=O)OCOP(=O)(COCCn1cnc2c(N)ncnc21)OCOC(=O)C(C)(C)C` (library stock concentration (final ~1000-fold dilution): 10 mM)?
A: IRF Lucia reporter activity [1, 4]: 2.04; IRF Lucia reporter activity ([1]; agonist: LPS (TLR4) 0.1 ug/mL): 2.36

Q: With `COc1cc(-c2cc(-c3ccc(Cl)cc3)nc(=O)[nH]2)ccc1O` (library stock concentration (final ~1000-fold dilution): 10 mM) as the molecule, how does the “IRF Lucia reporter activity” value [1, 4] read?
A: Its value is 0.736.

Q: And the “IRF Lucia reporter activity” value ([1]; agonist: LPS (TLR4) 0.1 ug/mL)?
A: Its value is 0.926.

Q: Which “IRF Lucia reporter activity” value [1, 4] does the source give for `COc1ccc2[nH]c(S(=O)Cc3ncc(C)c(OC)c3C)nc2c1` (stereo unspecified) (library stock concentration (final ~1000-fold dilution): 10 mM) here?
A: The value was 0.987.

Q: And the “IRF Lucia reporter activity” value ([1]; agonist: LPS (TLR4) 0.1 ug/mL)?
A: Its value is 0.982.

Q: How did the “IRF Lucia reporter activity” value [2, 5] turn out when `COc1ccc2[nH]c(S(=O)Cc3ncc(C)c(OC)c3C)nc2c1` (stereo unspecified) was run?
A: The value was 0.986.

Q: Which “IRF Lucia reporter activity” value [1, 4] does the source give for `O=c1ccc2ccc(O)c(O)c2o1` (library stock concentration (final ~1000-fold dilution): 10 mM) here?
A: Its value is 0.815.

Q: And the “IRF Lucia reporter activity” value ([1]; agonist: LPS (TLR4) 0.1 ug/mL)?
A: The value was 1.02.

Q: With `O=c1ccc2ccc(O)c(O)c2o1` as the molecule, how does the “IRF Lucia reporter activity” value [2, 5] read?
A: Its value is 0.915.

Q: For `Nc1nc(N)c2nc(-c3cccc(O)c3)cnc2n1` (library stock concentration (final ~1000-fold dilution): 2 mM), which “IRF Lucia reporter activity” value [1, 4] is on record?
A: The value was 0.408.

Q: What about the “IRF Lucia reporter activity” value ([1]; agonist: LPS (TLR4) 0.1 ug/mL) of the same molecule?
A: The value was 1.18.

Q: How did the “IRF Lucia reporter activity” value [2, 6] turn out when `Nc1nc(N)c2nc(-c3cccc(O)c3)cnc2n1` was run?
A: Its value is 1.12.

Q: How did the “IRF Lucia reporter activity” value [1, 4] turn out when `COc1ccccc1N1CCN(CC(O)COc2cccc3ccccc23)CC1` (stereo unspecified) (library stock concentration (final ~1000-fold dilution): 10 mM) was run?
A: The value was 0.943.

Q: And the “IRF Lucia reporter activity” value ([1]; agonist: LPS (TLR4) 0.1 ug/mL)?
A: Its value is 0.994.

Q: For `COc1ccccc1N1CCN(CC(O)COc2cccc3ccccc23)CC1` (stereo unspecified), which “IRF Lucia reporter activity” value [2, 5] is on record?
A: Its value is 1.09.

Q: Which results are given for `Cc1ncc(Cl)cc1NCc1ccc(C(=O)NC(CC2CCCC2)C(=O)NC2CC2)s1` (stereo unspecified) (library stock concentration (final ~1000-fold dilution): 10 mM)?
A: IRF Lucia reporter activity [1, 4]: 1.07; IRF Lucia reporter activity ([1]; agonist: LPS (TLR4) 0.1 ug/mL): 1.17

Q: With `Cc1ncc(Cl)cc1NCc1ccc(C(=O)NC(CC2CCCC2)C(=O)NC2CC2)s1` (stereo unspecified) as the molecule, how does the “IRF Lucia reporter activity” value [2, 5] read?
A: Its value is 1.15.

Q: With `O=c1cc(N2CCOCC2)oc2c1ccc1ccccc12` as the molecule, how does the “IRF Lucia reporter activity” value [2, 6] read?
A: The value was 1.15.

Q: What does the source list for `O=c1cc(N2CCOCC2)oc2c1ccc1ccccc12` (library stock concentration (final ~1000-fold dilution): 2 mM)?
A: IRF Lucia reporter activity [1, 4]: 0.778; IRF Lucia reporter activity ([1]; agonist: LPS (TLR4) 0.1 ug/mL): 1.01
